# Experimental data: the supplement of paper PMC8728848
# This is one part of the list.
# B1: Pwp4 (Candida glabrata) (protein)
# chain: MGSSHHHHHHSSGLVPRGSHMASVGNPITVSNVCSFPKNWHRTAGFRALTARLGIGIQSDSYKELLNYPGTFQLTTQQSSTTKPNFQISGLVGNIYGLTIVPSYLLVELTGYFVPPVSGEYTFSLEGSDDAAIIFIANPSTFKCGHVEDWPTAYDNDVTVTESIHATRTIYMIEGVAYPIRIAYYNGLSLGKLQASFTDPEGVKRVDWNGYIWRYDSCDTCSYV
# What was measured:
# Assay in all cases: glycan array binding signal (z-score within array); higher = stronger binding
# Settings in all cases: glycan notation: IUPAC condensed, linker removed
# [1] = target: Neu5Ac(a2-6)Gal(b1-4)GlcNAc(b1-3)Gal(b1-4)GlcNAc(b1-3)GalNAc
# How it was run: (§1)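 Arrays were curated from the Consortium for Functional Glycomics database, 3228 in total, and kept only where the protein sequence was available. Binding is expressed as a within-array Z-score. This score was averaged across arrays of the same protein sequence at different concentrations or buffers and across linkers, and negative values can be read as non-binding.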
# [2] = target: Neu5Ac(a2-6)Gal(b1-4)GlcNAc(b1-3)Gal(b1-4)GlcNAc(b1-3)[Neu5Ac(a2-6)Gal(b1-4)GlcNAc(b1-3)Gal(b1-4)GlcNAc(b1-6)]GalNAc
# How it was run: as §1
# [3] = target: Neu5Ac(a2-6)Gal(b1-4)GlcNAc(b1-3)Gal(b1-4)GlcNAc(b1-6)[Gal(b1-3)]GalNAc
# How it was run: as §1
# [4] = target: Neu5Ac(a2-6)Gal(b1-4)GlcNAc(b1-3)Gal(b1-4)[Fuc(a1-3)]GlcNAc(b1-3)Gal(b1-4)[Fuc(a1-3)]GlcNAc
# How it was run: as §1
# [5] = target: Neu5Ac(a2-6)Gal(b1-4)GlcNAc(b1-3)GalNAc
# How it was run: as §1
# [6] = target: Neu5Ac(a2-6)Gal(b1-4)GlcNAc(b1-3)[Neu5Ac(a2-6)Gal(b1-4)GlcNAc(b1-6)]GalNAc
# How it was run: as §1
# [7] = target: Neu5Ac(a2-6)Gal(b1-4)GlcNAc(b1-6)GalNAc
# How it was run: as §1
# [8] = target: Neu5Ac(a2-6)Gal(b1-4)GlcNAc(b1-6)[Gal(b1-3)GlcNAc(b1-3)]Gal(b1-4)Glc
# How it was run: as §1
# [9] = target: Neu5Ac(a2-6)Gal(b1-4)GlcNAc(b1-6)[Gal(b1-3)]GalNAc
# How it was run: as §1
# [10] = target: Neu5Ac(a2-6)Gal(b1-4)GlcNAc6S
# How it was run: as §1
# Neu5Ac(a2-6)GalNAc = target: Neu5Ac(a2-6)GalNAc
# How it was run: as §1
# [11] = target: Neu5Ac(a2-6)GalNAc(b1-4)GlcNAc
# How it was run: as §1
# [12] = target: Neu5Ac(a2-6)GalNAc(b1-4)GlcNAc6S
# How it was run: as §1
# [13] = target: Neu5Ac(a2-6)GlcNAc(b1-4)GlcNAc
# How it was run: as §1
# [14] = target: Neu5Ac(a2-6)GlcNAc(b1-4)GlcNAc(b1-4)GlcNAc
# How it was run: as §1
# Neu5Ac(a2-8)Neu5Ac = target: Neu5Ac(a2-8)Neu5Ac
# How it was run: as §1
# [15] = target: Neu5Ac(a2-8)Neu5Ac(a2-3)Gal(b1-3)GalNAc(b1-4)[Neu5Ac(a2-3)]Gal(b1-4)Glc
# How it was run: as §1
# [16] = target: Neu5Ac(a2-8)Neu5Ac(a2-3)Gal(b1-3)GalNAc(b1-4)[Neu5Ac(a2-8)Neu5Ac(a2-3)]Gal(b1-4)Glc
# How it was run: as §1
# [17] = target: Neu5Ac(a2-8)Neu5Ac(a2-3)Gal(b1-4)Glc
# How it was run: as §1
# [18] = target: Neu5Ac(a2-8)Neu5Ac(a2-3)Gal(b1-4)GlcNAc
# How it was run: as §1
# [19] = target: Neu5Ac(a2-8)Neu5Ac(a2-3)[Gal(b1-3)GalNAc(b1-4)]Gal(b1-4)Glc
# How it was run: as §1
# [20] = target: Neu5Ac(a2-8)Neu5Ac(a2-3)[GalNAc(b1-4)]Gal(b1-4)Glc
# How it was run: as §1
# [21] = target: Neu5Ac(a2-8)Neu5Ac(a2-8)Neu5Ac
# How it was run: as §1
# [22] = target: Neu5Ac(a2-8)Neu5Ac(a2-8)Neu5Ac(a2-3)Gal(b1-4)Glc
# How it was run: as §1
# [23] = target: Neu5Ac(a2-8)Neu5Ac(a2-8)Neu5Ac(a2-3)[Gal(b1-3)GalNAc(b1-4)]Gal(b1-4)Glc
# How it was run: as §1
# [24] = target: Neu5Ac(a2-8)Neu5Ac(a2-8)Neu5Ac(a2-3)[GalNAc(b1-4)]Gal(b1-4)Glc
# How it was run: as §1
# [25] = target: Neu5Ac(a2-8)Neu5Ac(a2-8)Neu5Ac(a2-8)Neu5Ac(a2-3)[GalNAc(b1-4)]Gal(b1-4)Glc
# How it was run: as §1
# [26] = target: Neu5Ac(a2-8)Neu5Gc(a2-3)Gal(b1-4)GlcNAc
# How it was run: as §1
# [27] = target: Neu5Ac(b2-6)Gal(b1-4)GlcNAc
# How it was run: as §1
# Neu5Ac(b2-6)GalNAc = target: Neu5Ac(b2-6)GalNAc
# How it was run: as §1
# [28] = target: Neu5Ac9Ac(a2-3)Gal(b1-3)GlcNAc
# How it was run: as §1
# [29] = target: Neu5Ac9Ac(a2-3)Gal(b1-4)GlcNAc
# How it was run: as §1
# [30] = target: Neu5Ac9Ac(a2-6)Gal(b1-4)GlcNAc
# How it was run: as §1
# [31] = target: Neu5Gc(a2-3)Gal(b1-3)GlcNAc
# How it was run: as §1
# [32] = target: Neu5Gc(a2-3)Gal(b1-3)[Fuc(a1-4)]GlcNAc
# How it was run: as §1
# Neu5Gc(a2-3)Gal(b1-4)Glc = target: Neu5Gc(a2-3)Gal(b1-4)Glc
# How it was run: as §1
# [33] = target: Neu5Gc(a2-3)Gal(b1-4)GlcNAc
# How it was run: as §1
# [34] = target: Neu5Gc(a2-3)Gal(b1-4)GlcNAc(b1-3)Gal(b1-4)GlcNAc(b1-2)Man(a1-3)[Neu5Gc(a2-3)Gal(b1-4)GlcNAc(b1-3)Gal(b1-4)GlcNAc(b1-2)Man(a1-6)]Man(b1-4)GlcNAc(b1-4)GlcNAc
# How it was run: as §1
# [35] = target: Neu5Gc(a2-3)Gal(b1-4)[Fuc(a1-3)]GlcNAc
# How it was run: as §1
# [36] = target: Neu5Gc(a2-6)Gal(b1-4)GlcNAc
# How it was run: as §1
# Neu5Gc(a2-6)GalNAc = target: Neu5Gc(a2-6)GalNAc
# How it was run: as §1
# [37] = target: Neu5Gc(a2-8)Neu5Ac(a2-3)Gal(b1-4)GlcNAc
# How it was run: as §1
# [38] = target: Neu5Gc(a2-8)Neu5Gc(a2-3)Gal(b1-4)GlcNAc
# How it was run: as §1
# [39] = target: Neu5Gc(a2-8)Neu5Gc(a2-3)Gal(b1-4)GlcNAc(b1-3)Gal(b1-4)GlcNAc
# How it was run: as §1
# [40] = target: Neu5Gc(a2-8)Neu5Gc(a2-6)Gal(b1-4)GlcNAc
# How it was run: as §1
binder,measurement,setting,value
B1,glycan array binding signal (z-score),[1],-0.514
same,glycan array binding signal (z-score),[2],-0.244
same,glycan array binding signal (z-score),[3],0.427
same,glycan array binding signal (z-score),[4],-0.388
same,glycan array binding signal (z-score),[5],-0.535
same,glycan array binding signal (z-score),[6],-0.631
same,glycan array binding signal (z-score),[7],-0.354
same,glycan array binding signal (z-score),[8],-0.561
same,glycan array binding signal (z-score),[9],-0.462
same,glycan array binding signal (z-score),[10],-0.336
same,glycan array binding signal (z-score),Neu5Ac(a2-6)GalNAc,-0.284
same,glycan array binding signal (z-score),[11],0.002
same,glycan array binding signal (z-score),[12],-0.494
same,glycan array binding signal (z-score),[13],1.6
same,glycan array binding signal (z-score),[14],-0.139
same,glycan array binding signal (z-score),Neu5Ac(a2-8)Neu5Ac,0.954
same,glycan array binding signal (z-score),[15],-0.601
same,glycan array binding signal (z-score),[16],-0.209
same,glycan array binding signal (z-score),[17],-0.58
same,glycan array binding signal (z-score),[18],0.507
same,glycan array binding signal (z-score),[19],-0.578
same,glycan array binding signal (z-score),[20],0.452
same,glycan array binding signal (z-score),[21],-0.368
same,glycan array binding signal (z-score),[22],-0.348
same,glycan array binding signal (z-score),[23],-0.455
same,glycan array binding signal (z-score),[24],2.12
same,glycan array binding signal (z-score),[25],-0.578
same,glycan array binding signal (z-score),[26],-0.535
same,glycan array binding signal (z-score),[27],2.05
same,glycan array binding signal (z-score),Neu5Ac(b2-6)GalNAc,-0.747
same,glycan array binding signal (z-score),[28],-0.527
same,glycan array binding signal (z-score),[29],0.1
same,glycan array binding signal (z-score),[30],-0.46
same,glycan array binding signal (z-score),[31],-0.465
same,glycan array binding signal (z-score),[32],-0.184
same,glycan array binding signal (z-score),Neu5Gc(a2-3)Gal(b1-4)Glc,-0.403
same,glycan array binding signal (z-score),[33],0.991
same,glycan array binding signal (z-score),[34],0.793
same,glycan array binding signal (z-score),[35],2
same,glycan array binding signal (z-score),[36],-0.441
same,glycan array binding signal (z-score),Neu5Gc(a2-6)GalNAc,-0.587
same,glycan array binding signal (z-score),[37],-0.243
same,glycan array binding signal (z-score),[38],-0.39
same,glycan array binding signal (z-score),[39],1.68
same,glycan array binding signal (z-score),[40],1.07
